For the test, the system named is NCI-H322M lung. Briefly: NCI anticancer screen, dose series, 48 h.

SMILES strings stand for the structures.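 Method: 48-hour compound exposure of cells in 96-well plates, five concentrations, linear interpolation of endpoints. GI50: concentration for 50% inhibition of growth. TGI marks complete inhibition of growth.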

`N#Cc1c(-c2ccc(Cl)cc2)nc(SCc2ccc(F)cc2)nc1N1CCNCC1`: the GI50 is 2.17 µM and the TGI was 5.53 µM.
With `CCO/C=N/C1=C(C#N)C(c2ccc(F)cc2)c2sc3c(CC)cccc3c2O1` (centres undefined), the GI50 is 0.699 µM and the TGI amounted to 18.2 µM.
